The list shows a part of the results. At the low end of the ranking the order means little.
test system: T1, GST-NbGlk1(82-244); assay: protein-binding microarray; settings: NbGlk1 is a Golden2-like transcription factor of Nicotiana benthamiana; high values mean tight binding; most listed sequences are background and not binding sites; double strand, one strand shown;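 further: rank-based score ranging −0.5 to +0.5 with E above 0.45 taken as significant binding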
T1 sequence: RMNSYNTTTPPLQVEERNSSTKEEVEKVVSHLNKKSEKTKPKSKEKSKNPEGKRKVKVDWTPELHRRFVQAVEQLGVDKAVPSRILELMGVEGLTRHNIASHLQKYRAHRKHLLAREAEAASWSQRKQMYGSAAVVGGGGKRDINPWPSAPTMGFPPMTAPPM

Sequence	binding signal
AGCACTGA	-0.0105 E-score
ATTGGTAA	0.082 E-score
AAGTTCAA	0.049 E-score
ATGCGTCA	0.0153 E-score
AATGATGT	0.0742 E-score
CAAGGGAC	-0.238 E-score
AATGTGAT	0.0961 E-score
ACTCACTC	-0.0834 E-score
AAAAGAAT	0.267 E-score
ACGGCCAA	-0.0769 E-score
ACTAGGTG	-0.132 E-score
ACAAACAA	0.106 E-score
AGGGACAG	-0.281 E-score
AGACTAAA	-0.0428 E-score
ATCTTAAT	0.321 E-score
ACGAACCA	-0.115 E-score
ACCGCGCA	-0.119 E-score
ACCACAGC	-0.249 E-score
ACCCCCCG	-0.204 E-score
ACCCGACG	-0.267 E-score
ATTTGTCA	0.186 E-score
ACACAAAA	0.169 E-score
AGGTTGTA	-0.0384 E-score
AACGCGTG	-0.132 E-score
AGGTACGC	-0.155 E-score

Sequence	binding signal
ACAATTAA	0.0393 E-score
AGCACGCT	-0.229 E-score
ATGTGAGA	0.0449 E-score
AGCTTTTA	0.0917 E-score
ACTCGCGC	-0.0784 E-score
ACGACCGG	-0.0908 E-score
AAAGGGTG	-0.24 E-score
AGTGAGAT	0.312 E-score
AAGTGCGG	-0.0856 E-score
AACTCGAC	-0.155 E-score
ATACCTTA	0.133 E-score
AGGACCCA	-0.207 E-score
AACGCCAA	-0.147 E-score
ATTCATCC	-0.0201 E-score
AACACGTA	0.118 E-score
CACCAACG	-0.276 E-score
AACTGTAG	-0.0415 E-score
ATTGAAAA	0.214 E-score
ACGTACTC	-0.101 E-score
ACTGCAGC	-0.174 E-score
AGGGCTTA	-0.203 E-score
ACGAGTAT	0.093 E-score
CAACAGAG	-0.17 E-score
ACGAACTG	-0.0281 E-score
CAACTCAA	-0.0821 E-score

Sequence	binding signal
AACCGCCC	-0.181 E-score
CACGGTCC	-0.178 E-score
ATCGAAAA	0.176 E-score
CAGACCAA	-0.0896 E-score
AGAAGCGA	0.014 E-score
ATAGTGGC	-0.111 E-score
ATTGGCGC	-0.0353 E-score
AGGCCCGG	-0.324 E-score
AACGTCTC	-0.166 E-score
ACTGGGAT	0.186 E-score
CAGCATGG	-0.0124 E-score
ACCAGGCT	-0.185 E-score
ACCTCGTG	-0.164 E-score
AAAAGGGC	-0.178 E-score
AGTTCCGG	-0.169 E-score
CACCACTG	-0.146 E-score
ATCCATCA	0.189 E-score
AGAAAACG	-0.0994 E-score
ACGAGGAC	-0.248 E-score
AGGTGCCC	-0.355 E-score
ACGAAATC	0.477 E-score
AATTAATC	0.125 E-score
AGCAACGG	-0.176 E-score
AGATGAGA	0.0729 E-score
AACACCTA	-0.0524 E-score

Sequence	binding signal
ATCCGCAT	0.272 E-score
ATGTACGG	-0.0643 E-score
ATCGCTTC	0.206 E-score
ACTACCGG	-0.0394 E-score
AGGTCCCC	-0.355 E-score
ACGACTAG	-0.168 E-score
AAATAGCA	0.0222 E-score
ATTACCAG	0.219 E-score
AGGATTCG	0.352 E-score
ATCAAAAC	0.0607 E-score
AGAGTGAG	-0.0937 E-score
ACAGGAAG	-0.0521 E-score
AATTACAA	0.196 E-score
AGGTTGAC	-0.141 E-score
AGCCGCTA	-0.292 E-score
CAAGGTCA	-0.172 E-score
AGTTGGAG	-0.104 E-score
ATACACCC	0.0421 E-score
AGTCCAAA	0.0409 E-score
ACTTGTAG	-0.141 E-score
ACTCAGCG	-0.101 E-score
AACGGTGC	-0.218 E-score
AACTTTAC	-0.0483 E-score
ATCGTGAC	0.129 E-score
ATCAGGTC	0.0814 E-score

Sequence	binding signal
ATCCGACC	0.158 E-score
ACAGATGT	-0.061 E-score
AGCAGAGG	-0.143 E-score
ACTACGAC	-0.276 E-score
AAACGACA	0.0175 E-score
AGCACGCA	-0.135 E-score
AGCCCGGG	-0.221 E-score
AGGCCCTA	-0.278 E-score
ATACATCG	0.0121 E-score
ATCGGTGG	0.0677 E-score
ACGGACTG	-0.244 E-score
ATGGATTG	0.21 E-score
ATCCAAAT	0.302 E-score
AAATAGGT	0.0372 E-score
AATTTCCG	0.257 E-score
ATGACTAG	-0.0378 E-score
AACCGTTA	0.0256 E-score
ATTAACAC	0.122 E-score
CAAAATAA	0.205 E-score
ATACAGAA	0.221 E-score
AGAGACGC	-0.266 E-score
AGGGGTTA	-0.044 E-score
AAGGGCAC	-0.246 E-score
AAAGGAGC	-0.195 E-score
ACTGGGGA	-0.0882 E-score

Sequence	binding signal
AGCAGGGC	-0.202 E-score
AAGAGTTC	-0.0576 E-score
AGAGACTC	-0.151 E-score
ATTTGCAC	0.305 E-score
AAATGGAT	0.235 E-score
ACAGACCA	-0.168 E-score
AGTTAAAA	0.111 E-score
ACACAAAG	0.0708 E-score
ACGACGAT	0.176 E-score
CACTAAGG	-0.235 E-score
ACCTGCTA	-0.159 E-score
ACGTTTCT	-0.0416 E-score
AAGCTACC	-0.2 E-score
AGTCAAAG	0.0265 E-score
AATGGTCG	-0.0888 E-score
ACCCTCCG	-0.0831 E-score
AGACGATA	0.0431 E-score
ATGTACCG	-0.0456 E-score
AGCTACCA	-0.229 E-score
ATATCTTG	0.436 E-score
AGCCCTAG	-0.219 E-score
CAATCAAC	0.175 E-score
ATACAACG	-0.0522 E-score
CAGACGTC	-0.0262 E-score
AGAGGGAC	-0.257 E-score

Sequence	binding signal
ACGTACCA	-0.175 E-score
ATGTCAAC	-0.00583 E-score
AGAAATCA	0.379 E-score
ACGGCGAA	-0.0243 E-score
CAACGTAG	0.0208 E-score
ACGTGTGG	-0.156 E-score
CACTTCCA	-0.0634 E-score
AGGAGGTG	-0.254 E-score
ATAGCTAA	0.00643 E-score
ATTGTGTA	0.249 E-score
CACGGAAC	0.0109 E-score
AGATGACT	-0.146 E-score
ACGAGCGT	-0.0911 E-score
ATGTAATA	0.142 E-score
AGCGTAAT	0.337 E-score
AGTCTCCA	-0.119 E-score
AGTGCTTC	-0.22 E-score
ACACTGAC	-0.0711 E-score
AGAGCACA	-0.0673 E-score
AGTACCAA	-0.111 E-score
AGTCTGCA	-0.151 E-score
CAGCGGCA	-0.298 E-score

Reference: publication PMC5836133
